Measured values reported in PubChem BioAssay AID1745847 (National Center for Advancing Translational Sciences (NCATS), 2022).
Out of some 2,100 compounds screened, about 670 (32%) were called active. Inconclusive results, whose numbers are uncertain, are shown with a selection of clear calls. The call rests on the fitted dose curve; in most records, active means well fitted inhibition curve with a large enough effect; inconclusive means small, poorly fitted or top-dose-only effect; inactive means no such curve, though single readings can be large or run the other way. A potency beside an inconclusive call is a rough fit, not a confirmed value.

Assay: CMV-Luciferase Counterscreen for Inhibitors of ATXN expression; further: nearly all actives have a fitted effect of over 55% in size
Settings: HEK-293 CMV-luciferase reporter, luminescence, 24 h; series mostly up to 57.5 µM
Text: PI: Daniel Scoles Ph.D. University of Utah School of Medicine, Salt Lake City, Utah MLPCN Grant: NS073009 Spinocerebellar ataxia type 2 (SCA2) is a multisystem neurodegenerative disease caused by a dominantly acting mutation leading to expansion of a polyQ domain in the ataxin-2 protein (ATXN2). SCA2 patients develop progressive ataxia and later lose function in other neuronal systems. Prominent parkinsonian signs develop in some patients. Like many neurodegenerative disorders, no symptomatic or disease-modifying treatments are known. The primary objective of the proposed research is to identify compounds inhibiting ATXN2 expression and to test them for efficacy in SCA2 mouse models. We have developed a cell-based assay paired with an in vivo mouse model using identical luciferase expression constructs. This approach takes advantage of an ATXN2-luciferase transgene, with the luciferase gene flanked by the upstream and downstream portions of the ATXN2 gene. Here we describe a 5-7 dose quantitative high thoroughput screen (qHTS) for compounds lowering ATXN2 expression. We screened the NIH Molecular Libraries Small Molecule Repository (MLSMR) and NCGC's mechanistically annotated (MIPE) and drug repurposing (NPC) collections of compounds for lowering expression of an ATXN2-luciferase reporter in HEK-293 cells. The assay is a multiplexed cell viability assay to ensure target reduction in the absence of cytotoxicity. Secondary qHTS assays included a CMV-luciferase reporter expressed in HEK-293 cells as well as a biochemical assay using recombinant luciferase to detect inhibitors of the reporter enzyme. Compounds that inhibit ATXN2 expression but is not cytotoxic were selected for confirmatory and secondary screens.
PROTOCOL TABLE (as described by Inglese J, Shamu CE and Guy RK. 2007) SEQUENCE No. (e.g., 1, 2, 3, etc.); PARAMETER (e.g., Cells, Incubation, Reagent, etc.); VALUE; DESCRIPTION. 1; Cells; 4 uL; white, solid bottom, 1536-well Greiner assay plate. 2; Incubation; 2 hr; 37 degree C in 5% humidified CO2. 3; Compounds; 23 nL; Kalypsis pintool (Wako USA) equipped with a 1536-well pin head. 4; Incubation; 24 hr; 37 degree C in 5% humidfified CO2. 5; Reagent; 1 uL; Gly-Phe-7-Amino-4-trifluoromethylcoumarin. 6; Incubation; 30 min; 37 degree C in 5% humidfified CO2. 7; Detection; Fluorescence; Viewlux plate reader (PerkinElmer). 8; Reagent; 3 uL; SteadyGlo luciferase solution (Promega). 9; Incubation; 5 min; room temperature. 10; Detection; Luminescence; ViewLux plate reader (PerkinElmer). NOTES (numbers refer to Sequence numbers above) 1. HEK-293 cells expressing CMV-luciferase reporter (designated as SC cells) were suspended in phenol-red free DMEM and dispensed in assay plates using a Multidrop Combi dispenser (Thermo Fisher Scientific). 2. Assay plates were incubated. Evaporation was prevented by covering assay plates with metal lids containing holes to allow gas diffusion. 3. Compounds were added in a dose response manner with the final concentrations of 57, 11.4, 2.28, 0.46, 0.091, 0.018, 0.0037 uM. Vehicle-only plates, with DMSO being pin-transferred to columns 5-48, were inserted uniformly at the beginning and the end of each library to monitor and record any shifts in assay performance. 5. 125 uM Gly-Phe-7-Amino-4-trifluoromethylcoumarin (MP Biomedicals) working concentration was used at a final concentration of 25 uM. 7. To assess cell viability; the assay plates were read using the ViewLux high-throughput CCD imager (PerkinElmer), wherein single end-point fluorescence measurement was acquired (excitation 405/10; emission 540/25 nm). 8. Detection reagent SteadyGlo Luciferase (Promega) was added to the assay plate. 10. Luminescence is then measured on the ViewLux imager equipped with a clear emission filter using a 2 sec exposure. […]
On the % scale 0 is the no-effect control and ±100 the full control effect; potency means the concentration at half of the fitted maximal effect; tags describe the fitted curve by direction and shape.

Row | SMILES | Potency | activity change, negative = inhibition
1 | COc1ccc(NC(=O)CSc2n[nH]c(-c3ccccn3)n2)cc1 | inconclusive: 31.6 µM [inhibitor, single point] | –
2 | COc1ccccc1/C=C1\SC(=S)N(CCC(=O)NC2=NCCS2)C1=O | inconclusive: 10 µM [inhibitor, partial curve] | –
3 | CCCCC(=O)NC(c1ccc(N(C)C)cc1)c1ccc2cccnc2c1O (stereo unspecified) | active: 1.78 µM | –
4 | COc1ccc(/C=C/C(=O)Nc2cccc(S(=O)(=O)N3CCCC3)c2)cc1OC | inconclusive: 4.47 µM [inhibitor, single point] | –
5 | Cc1ccc(SC2=C(Sc3ccc(C)cc3)C(=O)c3ccccc3C2=O)cc1 | inactive | –
6 | Cc1cccn2c(Nc3ccccc3)c(-c3ccccn3)nc12 | inconclusive: 15.8 µM [inhibitor, partial curve, poor fit] | –
7 | O=C(/C=C/c1ccco1)Oc1cc(Br)cc(/C=N/NC(=O)c2ccccc2O)c1 | inconclusive: 0.447 µM [inhibitor, full curve, poor fit] | –
8 | O=C(Nc1cccc(Br)c1)c1ccc(Cl)c(S(=O)(=O)N2CCOCC2)c1 | inconclusive: 1.12 µM [inhibitor, full curve, poor fit] | –
9 | CC1(C)Cc2ccccc2C(NNC(=O)c2ccccn2)=N1 | inconclusive: 12.6 µM [inhibitor, partial curve, poor fit] | –
10 | COC(=O)COc1ccc(-c2nccc(-c3ccccn3)n2)cc1 | inconclusive: 0.708 µM [inhibitor, full curve, poor fit] | –
11 | CC(=O)Nc1sc2c(c1-c1nc3ccccc3s1)CN(C(C)C)CC2 | inconclusive: 10 µM [inhibitor, partial curve, poor fit] | –
12 | O=C(O)CSc1cc(NS(=O)(=O)c2ccc(Cl)cc2)c2ccccc2c1O | active: 28.2 µM | –
13 | Cc1cccc(OCC(=O)Nc2ccc3c(c2)nc(CCN2CCN(c4ccccn4)CC2)n3C)c1 | active: 14.1 µM | –
14 | Cc1ccc(C(NC(=O)C2CCN(CCOc3ccc(Cl)cc3Cl)CC2)c2ccccn2)cc1 (stereo unspecified) | inconclusive: 20 µM [inhibitor, partial curve, poor fit] | –
15 | Cc1nc2ccccc2c(=O)n1/N=C/c1c(O)ccc2oc3c(c12)CCCC3 | inconclusive: 22.4 µM [inhibitor, partial curve, poor fit] | –
16 | Cc1nc(-c2ccc(F)cc2)c(CC(=O)N(C)CC(=O)Nc2ccc(Cl)c(C(F)(F)F)c2)s1 | inconclusive: 22.4 µM [inhibitor, partial curve, poor fit] | –
17 | O=C(NNC(=O)c1csc(-c2cnccc2C(F)(F)F)n1)c1ccc(C(F)(F)F)cc1 | inconclusive: 4.47 µM [inhibitor, single point] | –
18 | CC1(C)Cc2c(ccc3ccccc23)C2=C(C(=O)N3CCCC3)C(=O)C(=O)N21 | inactive | –
19 | COc1ccc(Br)cc1C(=O)NC(=S)Nc1ccc(CN2CCOCC2)cc1 | inconclusive: 22.4 µM [inhibitor, single point] | –
20 | O=C(CSc1ccc2c(c1)OCCO2)Nc1ccc(Cl)cn1 | inactive | –
21 | OCCNc1c2ccccc2nc2ccccc12 | active: 20 µM | –
22 | CCN1CC2=C(OC(N)=C(C#N)C2c2cccs2)/C(=C\c2cccs2)C1 (stereo unspecified) | – | inactive: -3.4% [at 11.4 µM]

Row | SMILES | Potency | activity change, negative = inhibition
23 | C[C@@H]1CN([C@@H](C)CO)S(=O)(=O)c2ccc(C#CC3CCCCC3)cc2O[C@@H]1CN(C)Cc1cccnc1 | inconclusive: 31.6 µM [inhibitor, partial curve, poor fit] | –
24 | CCCCn1c(SCC(=O)Nc2cc(C(F)(F)F)cc(C(F)(F)F)c2)nnc1C(CC)N(C)C (stereo unspecified) | inconclusive: 7.08 µM [inhibitor, single point] | –
25 | COC(=O)c1cc(Cl)ccc1NCC(N)c1ccccc1 (stereo unspecified) | inconclusive: 20 µM [inhibitor, partial curve] | –
26 | Cc1ccc2nc(NC(=O)CSCC(=O)OCC(=O)c3ccc(Br)cc3)sc2c1 | inconclusive: 4.47 µM [inhibitor, partial curve, poor fit] | –
27 | CC(=O)c1sc(NC(=O)C2(F)C(F)(F)C(F)(F)C(F)(F)C(F)(F)C2(F)F)nc1C | inconclusive: 0.891 µM [inhibitor, full curve, poor fit] | –
28 | O=C(CCN1C(=O)C2CC=CCC2C1=O)Nc1nc(-c2ccc(F)c(F)c2)cs1 (stereo unspecified) | inactive | –
29 | CC(=O)Nc1ccc(C(=O)N/N=C/c2cc(Br)cc(Br)c2O)cc1 | active: 11.2 µM | –
30 | COc1ccc(-c2csc(NC(=O)C3CCN(c4ncnc5sc(C)c(C)c45)CC3)n2)cc1OC | active: 3.55 µM | –
31 | COc1cccc(/C=N/NC(=O)CSc2ccccc2C)c1O | active: 7.08 µM | –
32 | Cn1c2c(c(=O)[nH]c1=O)C(c1cccc(O)c1)C1=C(N2)c2ccccc2C1=O (stereo unspecified) | inconclusive: 10 µM [inhibitor, partial curve] | –
33 | Cc1cc(OCc2nc(N)nc(N)c2-c2ccc(Cl)c(Cl)c2)ccc1[N+](=O)[O-] | active: 0.316 µM | –
34 | Cc1cc(Br)ccc1NC(=O)c1cnc(N2CCN(c3ccccn3)CC2)c2ccccc12 | inconclusive: 3.16 µM [inhibitor, partial curve, poor fit] | –
35 | CCN1c2ccccc2NC2N=C(OC)C(c3ccccc3)C21 (stereo unspecified) | inconclusive: 17.8 µM [inhibitor, partial curve, poor fit] | –
36 | O=C(O)COc1ccc2oc3ccccc3c2c1 | – | inactive: -24.7% [at 11.4 µM]
37 | COc1cc(Br)cc(/C=N/NC(=O)Cc2ccccc2)c1O | inconclusive: 3.16 µM [inhibitor, partial curve, poor fit] | –
38 | COc1ccc(/C=C/C(O)=C2/C(=O)N(C)C3(C)CC2c2ccccc2O3)cc1 (stereo unspecified) | inconclusive: 12.6 µM [inhibitor, partial curve] | –
39 | COc1cccc(/C=C2/SC(=S)N(CCCC(=O)Nc3ccc(O)cc3)C2=O)c1 | active: 3.16 µM | –
40 | c1ccc(Nc2nc(N3CCCCC3)nc(N3CCNCC3)n2)cc1 | inconclusive: 39.8 µM [inhibitor, partial curve, poor fit] | –
41 | Cc1nc2ccccc2c2oc(C(=O)Nc3ccc(C(C)C)cc3)cc12 | inconclusive: 25.1 µM [inhibitor, single point] | –
42 | O=C(NN=C(c1ccccc1)c1ccccn1)c1ccccc1 | inconclusive: 2 µM [inhibitor, full curve, poor fit] | –
43 | O=C(COc1nsnc1N1CCOCC1)N/N=C/c1ccccc1O | active: 11.2 µM | –
44 | COc1cc(C(=O)Oc2cccc(Nc3ncnc4ccccc34)c2)cc(OC)c1OC | active: 3.98 µM | –

Row | SMILES | Potency | activity change, negative = inhibition
45 | CS(=O)(=O)N1CCC(Oc2cccc(C(=O)NCCCC3CCCC3)c2)CC1 | active: 14.1 µM | –
46 | CN(C)c1ccc(CNCCC(Cc2ccccc2)c2ccco2)cc1 (stereo unspecified) | inconclusive: 10 µM [inhibitor, partial curve, poor fit] | –
47 | O=C(Nc1ccc(OC(F)(F)F)cc1)N1CCN(c2ccnc3cc(Cl)ccc23)CC1 | inconclusive: 14.1 µM [inhibitor, partial curve, poor fit] | –
48 | O=C(Nc1ccc(Br)c(C(F)(F)F)c1)c1ccc(C(F)(F)F)cc1 | inconclusive: 8.91 µM [inhibitor, single point] | –
49 | CCCc1cc(C(=O)Nc2ccc(C(=O)c3ccc(C)cc3)cc2)n(C)n1 | inconclusive: 3.55 µM [inhibitor, partial curve, poor fit] | –
50 | O=S(=O)(Cc1cc(NCc2ccccc2)nc(-c2ccccn2)n1)c1ccccc1 | inactive | –
51 | COC(=O)c1ccccc1S(=O)(=O)NNC(=O)Nc1ccccc1 | inconclusive: 3.16 µM [inhibitor, single point] | –
52 | CC1(C)Cc2ccccc2C2=NNC(=O)C2=N1 | active: 25.1 µM | –
53 | COc1c(C)cccc1C(=O)Nc1ccc(N2CCN(C(=O)c3ccccc3C)CC2)cc1 | active: 15.8 µM | –
54 | Cc1ccc(OCC(O)Cn2c(=N)n(CCN3CCCCC3)c3ccccc32)cc1 (stereo unspecified) | inactive | –
55 | CC(C)(C)OC(=O)N1CCC(c2c(C(=O)NCC3CCN(C4CCCC4)C3)cnn2-c2cccc(Cl)c2)CC1 (stereo unspecified) | – | inactive: -22.1% [at 11.4 µM]
56 | Cc1ccc(C(C[N+](=O)[O-])Sc2ccc(N)cc2)cc1 (stereo unspecified) | – | inactive: 52% [at 11.4 µM]
57 | CS(=O)(=O)c1ccc(Nc2nc(C(N)Cc3ccc(Cl)cc3)cs2)cc1 (stereo unspecified) | inconclusive: 15.8 µM [inhibitor, partial curve, poor fit] | –
58 | O=C(NCc1ccco1)/C(=C/c1cccc(C(F)(F)F)c1)c1nc2ccccc2[nH]1 | – | inactive: -12% [at 11.4 µM]
59 | O=C(Nc1cccc(S(=O)(=O)C(F)F)c1)c1ccc(Cl)c(S(=O)(=O)N2CCOCC2)c1 | active: 15.8 µM | –
60 | OC[C@@H]1[C@@H](c2ccc(F)cc2)C(c2cccc(Cl)c2)=NN1c1ccccc1 | inconclusive: 15.8 µM [inhibitor, single point] | –
61 | COc1ccc2nc(C)cc(NCc3cccc(C(F)(F)F)c3)c2c1 | inconclusive: 12.6 µM [inhibitor, partial curve] | –
62 | Nc1ncn([C@@H]2O[C@H](CO)[C@@H](O)[C@H]2O)c(=O)n1 | inconclusive: 6.31 µM [inhibitor, partial curve, poor fit] | –
63 | CN(C)CCOc1ccc(-c2c(-c3ccccc3)sc3ccccc23)cc1 | active: 22.4 µM | –
64 | Cc1ccc(C)n1-c1ccc(C(=O)N2CCC(C(N)=O)CC2)cc1 | – | inactive: 4.95% [at 11.4 µM]
65 | O=C(Nc1nc2cc(Cl)ccc2s1)C1CCCN(S(=O)(=O)c2cccc3cccnc23)C1 (stereo unspecified) | active: 25.1 µM | –
66 | COc1cc(C#Cc2c(-c3cncn3C)n(C)c3ccc(-c4cnc(OC)nc4)cc23)cc(OC)c1 | active: 3.55 µM | –
